In the RNAGym collection of RNA variant scans (doi:10.7554/elife.90254):
Read counts are not given, so values of variants with three or more changes are uncertain.

B1: OR4K15 (parent)
chain: GUUAACGGUCAUAGGCCAUGGAAACUAGGAGCACCAUUUCGCUGCCAGUGAAGAAAUGAACAAAGAAAAUCUGGGCCAGGCAGGCAUCAAAAGAAAUAGUCUUGCGCUCAACCAGAAAGUCUGUAAUCAUUUUAAGGGUA

Variants of: B1
Experiment: self-cleavage, relative activity (ratio to wild type); higher = more cleavage; in vitro, sequencing; the parent is a self-cleaving ribozyme
Variant U37C A69G U122C has a self-cleavage of 0.7. Work on U49G A116U U133A yielded a self-cleavage of 0.27. Variant U37G A51G C128U has a self-cleavage of 1.78. In the case of U38C C77G C85U, the self-cleavage is reported as 0.27. U19C A94G A95G U122A gave a self-cleavage of 2.02. U2C U97C U132C gave a self-cleavage of 0.52. Variant U9C C17U A90G has a self-cleavage of 0.84. U43A A54G U120C gave a self-cleavage of 0.76. In the case of A13G A23G A51G U57C, the self-cleavage is reported as 0.49. Work on U39A A64G U72A yielded a self-cleavage of 0.13. A89G U103C A111G A126G gave a self-cleavage of 0.01. In the case of A56G U87A A90G, the self-cleavage is reported as 1.12. A47G U124G A140G gave a self-cleavage of 0.75. In the case of G44A U70C A95G U108C, the self-cleavage is reported as 0.01. With A86G A90U A114G the self-cleavage was 0.4. With A23G A47G A118G the self-cleavage was 0.41. With U2G A47G A114U A117G the self-cleavage was 0. For A23G A96G U100C, the self-cleavage was 1.42. A11G G15A A86U A98U A126G gave a self-cleavage of 1.05. With A18U U26C A66C A68G A69G the self-cleavage was 0.71. U43A A64U U122C gave a self-cleavage of 1.71. Variant C109U A118G A126G has a self-cleavage of 0.11. Work on A56G G83U A86G U133C yielded a self-cleavage of 0.38. Variant A33U U43C A114C A116U A118U U124C has a self-cleavage of 0. A27G A66G A111G gave a self-cleavage of 0.05. For A11G A62G A89G, the self-cleavage was 1.05. With U43C U72A A89G the self-cleavage was 0.16. With U70C A78G C105U the self-cleavage was 0.04. A5U A66G A116C gave a self-cleavage of 0.17. In the case of U19C U38C A64G U108C A140U, the self-cleavage is reported as 0.01. For A23G A52G U122C, the self-cleavage was 1.15. U2A C113U U130G gave a self-cleavage of 0.09. For G1A U2C A54G, the self-cleavage was 1.25. For U37C A52G A66U A98U, the self-cleavage was 1.76. Work on A54G A59G A78U yielded a self-cleavage of 0.16. Work on A11G A47G A69G yielded a self-cleavage of 1.72. In the case of A11G A89G A91U U130C, the self-cleavage is reported as 0.32. In the case of A89U U127C A134G, the self-cleavage is reported as 0.83. In the case of U39C U70G A91G U127A, the self-cleavage is reported as 1.76. U39A A67G U130C showed a self-cleavage of 1.1. Work on A69G U70C A118U yielded a self-cleavage of 0.08. For A56G A63G G79A A91G C107U U108A A116G A117G, the self-cleavage was 0.31. For A60U A68U A69U, the self-cleavage was 2.56. With A5G A59G A114U A118G the self-cleavage was 0.1. Work on U37C A55G A129C yielded a self-cleavage of 0.85. In the case of U37C U38C U49C U72A U139C, the self-cleavage is reported as 0.29. A86G A111G U139C gave a self-cleavage of 0.01. A110G A117G A118G showed a self-cleavage of 0.16. Variant A52G U100C C109A has a self-cleavage of 0.69. A30G C46U A68G A95G G119A gave a self-cleavage of 1.28. For U38G A51U A125G A129G, the self-cleavage was 0.55. Variant A47U A86G A91G A116U has a self-cleavage of 0.01. U57A A62G A96G showed a self-cleavage of 0.07. U12C U102C U122C U127C showed a self-cleavage of 1.6. For A11G A33G A36C A134G, the self-cleavage was 1.32. A52G U57C A90G showed a self-cleavage of 1.04. Variant A60C A66G A78U has a self-cleavage of 0.28. U57A A117G U122C showed a self-cleavage of 0.15. Work on U2C A18U A54G yielded a self-cleavage of 1.12. Work on U12C A18G U38C U43G C71U U132G yielded a self-cleavage of 0.51. With U2A A30G A56G U130C the self-cleavage was 0.39. A62G A82G A114U gave a self-cleavage of 0.04. Work on U39G A67G A118G yielded a self-cleavage of 0.52. For A22G A30G A69G A78C A94G U102C A116G, the self-cleavage was 0.23. Work on A55G A66G U127C U139A yielded a self-cleavage of 0.71. U26C U57C A59G A96U A118G gave a self-cleavage of 0.83. Variant U39A A63U U70C has a self-cleavage of 1.59. A47U A51U A52G showed a self-cleavage of 0.87. For U43C A67G A69G U100C, the self-cleavage was 2.16. Variant A11G A91G A118G has a self-cleavage of 0.78. Variant U43A U103C A118G A140G has a self-cleavage of 0.13. In the case of A51U A59U A78G U100A, the self-cleavage is reported as 0.13. Variant U12C A23G A59G has a self-cleavage of 0.56. G8A A62U A98G showed a self-cleavage of 1.26. For A68U A91G G137A, the self-cleavage was 1.2. In the case of U38A A54G A91G U120C U127C, the self-cleavage is reported as 0.16. U3C A47G A140U gave a self-cleavage of 0.65. U2C U37C C77U gave a self-cleavage of 1.24. Variant A55C A62G A69U U122A has a self-cleavage of 1.79. Variant A54G A86G A111G A116G A125G U130C has a self-cleavage of 0. In the case of U37C U49A A135U, the self-cleavage is reported as 1.7. U3C A11G A89G showed a self-cleavage of 1.54. Work on U72A U108A U122A yielded a self-cleavage of 0. G28A A59G U108C gave a self-cleavage of 0.02.
